Results as given in PubChem BioAssay AID1508623 (National Center for Advancing Translational Sciences (NCATS), 2021).
Among all 48,000 compounds or so, about 450 (0.94%) were called active. Inconclusive results (about 19%) are left out. Calls follow the shape of the dose curve; as a rule, active = well fitted inhibition curve with a large enough effect; inconclusive = small, poorly fitted or top-dose-only effect; inactive = no such curve, though single readings can be large or run the other way. Some of the results follow.

Experiment: Primary qHTS for Identification of Small Molecule Inhibitors of Huntingtin Promoter Activity; also: nearly all actives have a fitted effect of over 50% in size
Conditions: HEK293 HTT promoter firefly luciferase reporter (activity 0% = vehicle and -100% = no light), 24 h; series mostly up to 57.5 µM; activity change, negative = inhibition: at the top concentration
Outline: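 HEK293 cells carrying firefly luciferase reporters were seeded at 2,500 per well in Opti-MEM and cultured for 24 h. They were then treated with compounds at up to 57.5 uM final for 24 h at 37 degrees C before Dual-Glo luminescence readout.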

Row | SMILES | activity change, negative = inhibition
1 | COc1ccc(CNC(=O)c2sc3nc[nH]c(=O)c3c2C)cc1 | inactive: 1.81%
2 | COc1ccc2cc(CNc3ccc(C)cc3)c(=O)n(CC(=O)Nc3ccc(C)cc3Cl)c2c1 | inactive: -25.9%
3 | CCN1CCSc2ccc(C(=O)NCc3cccc(Br)c3)cc21 | inactive: -26.2%
4 | CCOc1ccc(NC(=O)CSc2c3c(nc4ccccc24)CCCC3)cc1 | inactive: -7.81%
5 | CCCCOc1ccccc1C(=O)N(Cc1sccc1C)C1CCS(=O)(=O)C1 (stereo unspecified) | inactive: -17.9%
6 | CN(C)CCCn1c(-c2ccc(Cl)cc2)csc1=Nc1ccccc1 | inactive: -27.7%
7 | Cc1ccc2nc(CN3CCN(S(=O)(=O)c4ccc(C(C)C)cc4)CC3)oc2c1 | inactive: -14.5%
8 | COC(=O)c1ccc(NC(=O)CCn2cnnn2)c(C)c1 | inactive: -1.68%
9 | COc1ccc(OC)c(NC(=O)c2cc3cccc(OC)c3oc2=O)c1 | inactive: -1.15%
10 | CCCNC(=O)c1ccc(Cn2c(SCC(N)=O)nc3ccccc3c2=O)cc1 | inactive: -7.8%
11 | Cc1ccc(-c2nc3cccc(C)n3c2Nc2ccc3c(c2)OCO3)o1 | inactive: 14.2%
12 | COc1cccc(CNC(=O)Cn2ncn3c(cc4ccccc43)c2=O)c1 | inactive: 6.74%
13 | Cc1nn(-c2ccccc2)c(OC(=O)c2ccc(Cl)cc2)c1S(=O)(=O)c1ccccc1 | inactive: -10.7%
14 | COc1ccc(CNS(=O)(=O)c2cc3c(cc2Cl)NC(=O)CO3)cc1 | inactive: -20.5%
15 | CCC(=O)Oc1c(Sc2ccc(C)cc2)c(C)nn1-c1ccccc1 | inactive: -12.7%
16 | O=C(c1cc(-c2ccc(Br)cc2)n[nH]1)N1CCN(S(=O)(=O)c2ccc(Cl)s2)CC1 | inactive: 5.74%
17 | O=C(CSc1nc(=O)n(CCN2CCOCC2)c2c1CCC2)Nc1ccc(F)cc1F | inactive: -12.3%
18 | COCCCn1c(SCC(=O)Nc2ccc(OC)cc2)nc2c(sc3ccccc32)c1=O | inactive: -16.7%
19 | Cn1c(=O)c2c(nc(N3CCOCC3)n2Cc2ccccc2F)n(C)c1=O | inactive: -5.58%
20 | O=C(Nc1ccccc1C(F)(F)F)C1CCN(S(=O)(=O)c2ccccc2)CC1 | inactive: -21.8%
21 | O=C(CSc1nc2ncccc2o1)Nc1ccc(Cl)cc1F | inactive: 38.5%
22 | COc1cc(C2c3c(-c4cc(C)ccc4O)n[nH]c3C(=O)N2Cc2ccco2)cc(OC)c1OC (stereo unspecified) | inactive: -6.71%
23 | COC(=O)CSc1nc2sc3c(c2c(=O)n1-c1ccccc1)C(C)CCC3 (stereo unspecified) | inactive: -14.5%
24 | CC(C)Oc1ccc(C(=O)Nc2nnc3n2CCS3)cc1 | inactive: 72.7%

Row | SMILES | activity change, negative = inhibition
25 | O=C(Cn1cc(SCc2ccc(Cl)cc2)c2ccccc21)N1CCOCC1 | inactive: 2.9%
26 | CCCc1nn2c(=O)cc(COC(=O)c3cccc(NC(=O)c4ccc(OCC)cc4)c3)nc2s1 | inactive: -27.8%
27 | COc1ccc(NC(=O)c2cc(S(=O)(=O)N3CCCC(C)C3)cn2C)c(OC)c1 (stereo unspecified) | inactive: -10.4%
28 | COc1ccc(NC(=O)CSc2nc3ccccc3n2CC(=O)N(C)C2CCCCC2)cc1 | inactive: -13.9%
29 | Cc1cc(Cl)ccc1NS(=O)(=O)c1c(C(=O)N2CCCCCC2)c(C)n(C)c1C | inactive: -10.4%
30 | COC(=O)c1ccccc1NC(=O)c1ccc2c(c1)CCN2S(=O)(=O)c1ccc(Cl)cc1 | inactive: -2.17%
31 | Cc1ccc(C)c(Cn2c3ccccc3c3cnn(CC(=O)NC4CCCCCC4)c(=O)c32)c1 | inactive: 21.7%
32 | Cc1c(Cl)cccc1NC(=O)CSc1nc(=O)[nH]c2c1CCC2 | inactive: -26.1%
33 | O=S(=O)(c1cccc(Cl)c1)n1c(/C=C/c2ccccc2Cl)nc2ccccc21 | inactive: -45.7%
34 | O=c1n(Cc2ccccc2)nc2n1-c1cc(Cl)ccc1OC2 | inactive: -1.92%
35 | Cc1c2cnn(-c3ccccc3)c(=O)c2c(C)n1CCCC(=O)Nc1cccc(F)c1 | inactive: -2.05%
36 | COc1ccc(-c2cc(OC(=O)c3cccc(Cl)c3)c3c(C)oc(C)c3c(=O)c2)cc1OC | inactive: -29.9%
37 | COC1=CC(=O)C[C@@H](C)[C@]12Oc1c(Cl)c(OC)cc(OC)c1C2=O | inactive: -18.8%
38 | CC(NS(=O)(=O)c1ccc2c(c1)CCN2C(=O)CCCC(=O)O)c1ccccc1 (stereo unspecified) | inactive: 4.61%
39 | N#Cc1nc(/C=C/c2ccc(F)cc2)oc1N1CCCCCC1 | inactive: -10.2%
40 | COc1cc(OC)cc(C(=O)N2CCN(C(=O)COc3ccc(C)cc3)CC2)c1 | inactive: 5.51%
41 | COc1cccc(-n2c(SCC(=O)Nc3ccc4c(c3)OCO4)nc3c([nH]c4ccccc43)c2=O)c1 | inactive: -9.16%
42 | CCc1c(C)sc(NC(=O)c2cc3nc(-c4ccc(OC)cc4)cc(C(F)(F)F)n3n2)c1C(=O)OC | inactive: -0.395%
43 | CCN(CC)c1ccc(NC(=O)Cn2nc3c(cc2=O)CCCC3)c(C)c1 | inactive: 0.0719%
44 | CCC(=O)NCC[C@@H]1CCc2ccc3c(c21)CCO3 | inactive: -5.08%
45 | Cc1ccccc1NC(=O)CSc1nc(-c2cccs2)nc2cc(=O)[nH]n12 | inactive: -1.73%
46 | COc1ccc(-n2nc(C(=O)Nc3cc(C)c(Cl)cc3OC)c3c4ccccc4n(C)c3c2=O)cc1 | inactive: -16.9%
47 | CCCCN(CCCC)CCCNC(=O)c1cc(-c2ccc(Cl)s2)nc2ccccc12 | inactive: -18.2%
48 | CC(C)c1ccc(C2CC(=O)N3CN(C4CCCCC4)CSC3=C2C#N)cc1 (stereo unspecified) | inactive: -25.6%

Row | SMILES | activity change, negative = inhibition
49 | Cn1ccc2cc(S(=O)(=O)N3CCCC(C(=O)NCc4ccccc4F)C3)ccc21 (stereo unspecified) | inactive: -23.8%
50 | Cc1ccccc1-c1nc(CNC(=O)NC2CCCCC2)c(C)o1 | inactive: 0%
51 | CC1=C(C(=O)Nc2ccccc2)C(c2ccc(Br)cc2)n2nc(CCCO)nc2N1 (stereo unspecified) | inactive: -12.5%
52 | COc1ccc(-n2ncc3c2ncn2nc(-c4ccc(OC)c(OC)c4)nc32)cc1 | inactive: -19%
53 | COc1ccccc1N1CCN(C(=O)c2nn(C)c3c2CS(=O)(=O)c2ccccc2-3)CC1 | inactive: -7.07%
54 | COc1cccc(CNC(=O)CN2C(=O)COc3ccc(S(=O)(=O)N4CCCCC4)cc32)c1 | inactive: -20.6%
55 | CCn1cc2nc(SCc3cc(C)ccc3C)n(Cc3ccc(Cl)cc3)c(=O)c2n1 | inactive: 2.28%
56 | CCN(CC)c1ccc(CN(C(=O)c2cc(=O)c3ccccc3o2)C2CCS(=O)(=O)C2)cc1 (stereo unspecified) | inactive: -25%
57 | Cn1cc(S(=O)(=O)N2CCCC2)cc1C(=O)Nc1ccc(F)cc1F | inactive: -9.71%
58 | CCOC(=O)c1ccc(NC(=O)Cc2noc3ccc(C)cc23)cc1 | inactive: -1.02%
59 | CC1=C(C(=O)Nc2ccccc2Br)C2(CCC(C)CC2)OC1=O (stereo unspecified) | inactive: -18%
60 | CCCCC12CN3CC(C)(CN(C1)C3c1ccc(OCc3ccccc3)cc1)C2=O (stereo unspecified) | inactive: -16.8%
61 | Cc1ccc(-c2nc3sc(CCNC(=O)c4ccc(F)c(F)c4)c(C)n3n2)cc1 | inactive: -22.4%
62 | O=C(C1CCN(S(=O)(=O)c2cccs2)CC1)N1CCN(c2ccccc2F)CC1 | inactive: -11.5%
63 | Cc1ccc(CNC(=O)CCCCCn2c(=O)c3sccc3n(CC(=O)N3CCCCC3C)c2=O)cc1 (stereo unspecified) | inactive: -5.29%
64 | O=C(CCCCCn1c(=O)[nH]c2ccccc2c1=O)N1CCN(c2cccc(C(F)(F)F)c2)CC1 | inactive: -7.38%
65 | COc1ccc(C)cc1NC(=O)CN(C)S(=O)(=O)c1ccc2c(c1)c(=O)n(C)c(=O)n2C | inactive: -3.57%
66 | Cc1ccccc1NC(=O)c1c(C)oc2ccc(O)c(CN3CCCCCC3)c12 | inactive: -28.4%
67 | CCC(CC)C(=O)Nc1ccc(S(=O)(=O)N2CCC(c3nc4ccccc4s3)CC2)cc1 | inactive: -13.8%
68 | Cc1ccccc1NC(=O)c1sc2nc(-c3cc4ccccc4oc3=O)[nH]c(=O)c2c1C | inactive: -1.57%
69 | CNC(=O)c1c(I)c(NC(C)=O)c(I)c(C(=O)O)c1I | inactive: -0.247%
70 | CCN(C(=O)Cn1c(C(=O)OC)cc2sccc21)c1cccc(C)c1 | inactive: -22.7%
71 | CCCn1cc(S(=O)(=O)c2ccc(C)c(C)c2)c(=O)c2cc(F)c(N3CCCCC3)cc21 | inactive: -4.68%
72 | CC(C)NC(=O)c1ccc(CSc2nc3ccncc3n2Cc2cccc(F)c2)cc1 | inactive: -9.5%

Row | SMILES | activity change, negative = inhibition
73 | O=C(NC1CCCCC1)c1ccc(CSc2nc3cccnc3n2Cc2ccccc2)cc1 | inactive: -28.9%
74 | CC1=C(c2ccc(C(C)C)cc2)S(=O)(=O)N=C1N1CCC(C(=O)NCc2ccc(C)o2)CC1 | inactive: -20.8%
75 | Cc1ccccc1-c1noc(-c2ccc(NCc3cccnc3)c([N+](=O)[O-])c2)n1 | inactive: -28.6%
76 | Cc1c(CC(=O)NCCc2ccccc2)c(=O)oc2c(C)c3occ(C(C)(C)C)c3cc12 | inactive: -6.13%
77 | CC(=O)c1cccc(NC(=O)Cn2ccn3nc(-c4ccccc4)cc3c2=O)c1 | inactive: -15.7%
78 | CCOC(=O)c1c(N)n(-c2ccc(OCC)cc2)c2nc3ccccc3nc12 | inactive: -1.76%
79 | Cc1ccc(CN(Cc2cccn2-c2nnc(N3CCCC3=O)s2)C(=O)Nc2ccccc2Cl)cc1 | inactive: -23.4%
80 | O=C(COc1ccccc1-c1nc(-c2ccccc2)no1)Nc1ccc([N+](=O)[O-])cc1 | inactive: 0.346%
81 | Cc1nc2c(-c3ccc(F)cc3)c(C)nn2c(C)c1CCC(=O)NCc1ccc(F)cc1 | inactive: -13%
82 | CCOC(=O)c1c(C)[nH]c(CCC(=O)NCc2ccc(OC)cc2OC)c1C | inactive: -23.9%
83 | CC(C)CCNC(=O)c1cc(-c2cccnc2)nc2ccc(S(=O)(=O)N3CCC(C)CC3)cc12 | inactive: -4.29%
84 | O=C(CSc1nc2c([nH]c3ccccc32)c(=O)n1-c1ccccc1)N1CCCCC1 | inactive: -3.26%
85 | COc1ccc(NC(=O)c2nnn(-c3ccc(C(C)C)cc3)c2C)c(OC)c1 | inactive: -10.8%
86 | CCCCC1=NC2(CCCC2)C(=O)N1Cc1ccc(-c2ccccc2-c2nn[nH]n2)cc1 | inactive: 3.49%
87 | COc1ccc(OC)c(-c2noc(N3CCN(c4cccc(C(F)(F)F)c4)CC3)n2)c1 | inactive: -23.9%
88 | CCOc1ccc(-c2cc(C(=O)NCCc3ccc(C)cc3)c3ccccc3n2)cc1 | inactive: 25.5%
89 | Cc1cccc(-n2c3nc(=O)[nH]c(=O)c-3cc3ccc(Cl)cc32)c1C | inactive: -13.7%
90 | Cn1c(CN2CCOCC2)nc2cc(NC(=O)c3ccccc3[N+](=O)[O-])ccc21 | inactive: -19.5%
91 | COc1ccc(-c2coc3cc(O)cc(O)c3c2=O)cc1 | inactive: 17.5%
92 | COc1cc(OC)c(NC(=O)c2ccc(-n3cnc4cccnc43)cc2)cc1Cl | inactive: -24.9%
93 | O=C(NCCCN1CCN(c2ccc(F)cc2)CC1)Nc1ccccc1Cl | inactive: -16.2%
94 | CN(C(=O)c1cc2c(Cl)nc3ccccc3c2s1)c1cccc(C(F)(F)F)c1 | inactive: 4.04%
95 | O=C(Cn1nc(-c2ccccc2)c2c(c1=O)CCCC2)Nc1ccc(F)c(Cl)c1 | inactive: -29.9%
96 | Cc1ccc(NC(=O)c2oc3ccc(S(=O)(=O)N4CCCCCC4)cc3c2C)c(C)c1 | inactive: -10.3%
